The supplement of paper PMC4166925
± gives the standard deviation of the averaged measurements. In all, about 33,000 sequences were measured (“E-score (dimensionless, -0.5 to 0.5)”: median about -0.046, highest 2% from about 0.36 on). The list shows a part of the results.

System: T1, SpTbr T-box DNA-binding domain (GST fusion)
T1 sequence: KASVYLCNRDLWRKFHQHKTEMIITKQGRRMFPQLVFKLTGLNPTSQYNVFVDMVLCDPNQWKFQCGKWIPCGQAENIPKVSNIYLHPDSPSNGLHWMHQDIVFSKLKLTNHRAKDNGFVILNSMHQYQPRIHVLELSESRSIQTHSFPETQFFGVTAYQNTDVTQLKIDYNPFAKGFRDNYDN
Experiment: PBM E-score of 8-mer (E-score (dimensionless, -0.5 to 0.5)); Tbr is Tbrain of the sea star Patiria miniata (Pm) or the sea urchin Strongylocentrotus purpuratus (Sp); higher = stronger binding preference; most listed sequences are background and not binding sites
Settings: the construct has about 5 more residues each side
Description: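 Universal protein-binding microarray (Agilent AMADID 016060, 60-bp probes with a 35-bp variable region) incubated with 200 nM GST-fused Strongylocentrotus purpuratus Tbr T-box DNA-binding domain (residues 362-554) in PBS pH 7.5. Scored for every ungapped 8-mer (given with its reverse complement) as E-score (range -0.5 to 0.5; >0.45 counts as bound) and Z-score of median probe intensity. Two replicate arrays (datasets 1 and 2).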
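Also: protein at 200 nM in PBS on universal double-stranded arrays.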

Point of comparison: ACGGGCGC, “PBM E-score of 8-mer” value 0.0718 ± 0.05. Against it:
- CAGCCTAC — higher, 0.178 ± 0.011
- CCTCGCCG — within error, 0.0507 ± 0.13
- CGCGGGCA — within error, -0.0187 ± 0.11
- CTCTACGC — within error, -0.0286 ± 0.08
- GCCCGTTA — within error, 0.0948 ± 0.051
- CCCCCATA — lower, -0.229 ± 0.057
- CAAGATGC — lower, -0.0897 ± 0.071
- ATATGCTG — lower, -0.0836 ± 0.089
- GCAATACA — lower, -0.0823 ± 0.031
- CAAGTATC — lower, -0.125 ± 0.023
- ACATCGCA — within error, 0.161 ± 0.041
- GCTTCGTA — lower, -0.0788 ± 0.048
- CATCAGGC — lower, -0.0419 ± 0.0077
- ATAAAATC — within error, 0.0237 ± 0.035
- ACGAGGTG — higher, 0.419 ± 0.019
- AGTCACTA — within error, 0.0654 ± 0.081
- ACAATGTA — lower, 0.0148 ± 0.0027
- TCACATAA — within error, 0.131 ± 0.087
- GCCCGAGC — lower, -0.304 ± 0.02
- ATCGTTAC — within error, 0.125 ± 0.053
- ATAGGTTG — lower, -0.0363 ± 0.049
- ACCACGCT — lower, -0.0128 ± 0.0025
- GAGAGTAA — within error, 0.0786 ± 0.011
- AGTCCATC — lower, -0.21 ± 0.01
- TATCGGAA — lower, -0.0364 ± 0.00083
- GTCGCTTA — within error, 0.0366 ± 0.058
- GTGCCCTA — lower, -0.196 ± 0.026
- AATCCCAG — lower, -0.0532 ± 0.027
- CTAGCGAC — higher, 0.176 ± 0.0026
- CGTCGCGA — higher, 0.277 ± 0.049
- ACCTGGCT — within error, 0.12 ± 0.017
- AACATGAC — within error, 0.0391 ± 0.045
- GAGTACGA — lower, -0.0782 ± 0.02
- GCCATGGA — lower, -0.1949 ± 0.00032
- TCGGCTCA — lower, -0.177 ± 0.074
- GCAGTATA — lower, -0.11 ± 0.1
- CGGGGGCC — lower, -0.095 ± 0.099
- CACTCTGC — lower, -0.0609 ± 0.049
- AGACTGAT — lower, -0.168 ± 0.062
- GGTCGGTA — lower, -0.147 ± 0.06
- CGTCAAGC — within error, 0.116 ± 0.015
- GTCCGTGA — lower, -0.038 ± 0.028
- AATGTTCA — within error, 0.0154 ± 0.037
- CAAGAAGG — lower, -0.134 ± 0.04
- GTGGACCA — lower, -0.106 ± 0.0052
- GATTGCCC — lower, -0.111 ± 0.043
- CGTTTGTC — within error, 0.047 ± 0.033
- CTAACCAC — within error, 0.127 ± 0.014
- ACTGCTTC — lower, -0.1684 ± 0.001
- AGGACTAG — lower, -0.386 ± 0.014
- GATGCACC — lower, -0.183 ± 0.032
- CCGAATGC — lower, -0.255 ± 0.015
- TCCTAGCA — lower, -0.015 ± 0.014
- TTCAAGAA — lower, -0.157 ± 0.032
- GGTTGTAA — within error, -0.0594 ± 0.095
- CGGGCCGA — lower, -0.179 ± 0.042
- GCGGGGAA — within error, 0.0869 ± 0.046
- CTGCCAAG — within error, 0.105 ± 0.03
- AGAAAAAG — lower, -0.0907 ± 0.043
- GAAGGCCC — lower, -0.115 ± 0.036
- CCTTCCCG — lower, -0.161 ± 0.12
- AGTCAGGA — lower, -0.151 ± 0.054
- AGGGAAGC — lower, -0.26 ± 0.037
- TCGAGAAA — within error, -0.00569 ± 0.14
- ACATAGCA — higher, 0.245 ± 0.0061
- CTATTTAA — within error, 0.115 ± 0.091
- ACTGCTCG — within error, 0.0799 ± 0.013
- TAGGAATA — lower, -0.38 ± 0.036
- ATCGCGGG — higher, 0.153 ± 0.021
- AGTCTGAG — within error, -0.024 ± 0.047
- AGTTAAGG — lower, -0.0801 ± 0.042
- ATTTTATG — lower, -0.0689 ± 0.03
- CTACGTGC — within error, 0.039 ± 0.085
- CCAGTACG — lower, -0.337 ± 0.092
- GCAGAAGA — lower, -0.218 ± 0.017
- AGACATAA — lower, -0.0985 ± 0.064
- CCGTATAG — lower, -0.0614 ± 0.023
- GTCTTTAA — lower, -0.237 ± 0.063
- ACACTCCC — higher, 0.2705 ± 0.0005
- CATTTTCA — within error, 0.0656 ± 0.088
- CAGGAATA — lower, -0.119 ± 0.0038
- GGTCCGTA — lower, -0.296 ± 0.021
- CCAAGTTA — lower, -0.179 ± 0.014
- TTCCGAAA — lower, -0.237 ± 0.11
- ATTTAATC — lower, -0.249 ± 0.04
